Literature values, collected in US20240016871A1, “Non-toxic furocoumarin-rich plant extracts and related compositions for use as antimicrobial substance or medicament and other therapeutic uses” (ICE-P LIFE, S.L., priority 2020, published 2024).

Tested on: COVID19
Settings: in vivo

Compound: CCN(CCO)CCCC(C)Nc1ccnc2cc(Cl)ccc12 (centres unmarked) [hydroxychloroquine]
- effect in reducing COVID19-confirmed 28-day mortality: little or no effect

Compound: lopinavir/ritonavir
- effect in reducing COVID19-confirmed 28-day mortality: little or no effect
